# In PubChem BioAssay AID485364 (National Center for Advancing Translational Sciences (NCATS), 2010):
# In all, about 360,000 compounds went through this assay and about 11,000 (3.1%) were called active. The inconclusive results got no clear call from the source; some entries with a clear call stand among them for comparison. The call rests on the fitted dose curve; in most records, active means well fitted inhibition curve with a large enough effect; inconclusive means small, poorly fitted or top-dose-only effect; inactive means no such curve, though single readings can be large or run the other way. Potencies of inconclusive entries are left out as doubtful fits.
# Target: Schistosoma mansoni thioredoxin glutathione reductase (TGR) (UniProt Q962Y6)
# Test: qHTS Assay for the Inhibitors of Schistosoma Mansoni Peroxiredoxins; further: nearly all actives have a fitted effect of over 60% in size
# Conditions: purified TGR, DTNB reduction, TNB absorbance 405 nm; series mostly up to 114 µM
# Outline: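 First, TGR (20 nM dispensed) and NADPH were mixed with compound. Second, a 15 min room-temperature incubation followed. Third, further NADPH and then DTNB were added to start the reaction. Finally, TNB absorbance was monitored kinetically.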
# Potency means the concentration at half of the fitted maximal effect; tags describe the fitted curve by direction and shape.
row,Structure (SMILES),Potency
1,CC(C)(C)OC(=O)N[C@@H](Cc1ccccc1)c1nnc(S(=O)(=O)Cc2ccccc2)o1,active: 0.631 µM
2,CC(C)N1CCN(Cc2coc3ccccc3c2=O)CC1CCO (centres undefined),"inconclusive [inhibitor, partial curve]"
3,Cc1ccc(C(=O)O)cc1-n1c(C)ccc1-c1ccccc1,active: 31.6 µM
4,CCOC(=O)C1CCCN(S(=O)(=O)c2ccc3c(c2)CCN3C(=O)CC)C1 (centres undefined),inactive
5,CN(C)c1ccc(/C=C/c2ccc3ccccc3n2)cc1,"inconclusive [inhibitor, partial curve]"
6,C=CCOc1cccc(C2C(C(=O)c3ccco3)=C(O)C(=O)N2CCN(CC)CC)c1 (centres undefined),"inconclusive [inhibitor, partial curve]"
7,CCOCCCNC(=O)CN1C(=O)CSc2cc(S(=O)(=O)N3CCCCCC3)ccc21,"inconclusive [inhibitor, single point]"
8,CCN(CC)C(=O)Cn1cc(/C=C2\C(=O)NC(=O)N(c3ccccc3F)C2=O)c2ccccc21,"inconclusive [inhibitor, partial curve]"
9,CC(C)c1ccc(N2CCN(C(=O)c3ccccc3NC(=O)/C=C\C(=O)O)CC2)cc1,active: 39.8 µM
10,CCCCN(C(=O)c1cc(-c2ccco2)nc2ccccc12)c1c(N)n(CCC)c(=O)[nH]c1=O,"inconclusive [inhibitor, partial curve]"
11,COc1ccc(CCNC(=O)c2cc3c(s2)-c2c(C)cccc2OC3)c(OC)c1,inactive
12,CN(C)CCCNc1oc(/C=C/c2cccs2)nc1S(=O)(=O)c1ccccc1,"inconclusive [inhibitor, partial curve]"
13,S=C(NCc1ccco1)Nc1ccc(Cl)cc1Cl,"inconclusive [inhibitor, partial curve]"
14,c1ccc2c(C[n+]3csc4ccccc43)cccc2c1,"inconclusive [inhibitor, full curve]"
15,COc1ccc2[nH]c(=O)c(CN(Cc3ccco3)Cc3nnnn3Cc3ccccc3)cc2c1,active: 35.5 µM
16,O=Cc1ccc(-c2ccc([N+](=O)[O-])cc2Cl)o1,"inconclusive [inhibitor, full curve]"
17,CCC(C)n1[nH]c(=O)cc1N (centres undefined),"inconclusive [inhibitor, full curve]"
18,Cc1ccc(-c2nc(CN(C)Cc3cccc4cnccc34)c(C)o2)s1,"inconclusive [inhibitor, partial curve]"
19,Cc1ccccc1-n1ccnc1SCC(=O)NCc1ccco1,"inconclusive [inhibitor, partial curve]"
